# Measurements reported in the supplement of paper PMC4967469.
# Lines with a small IC50 respond at low doses; fits outside the tested doses are given as limits. AUC, from the same fit, is the share of area under the viability curve across the 256-fold dose range; the more sensitive the line, the further below 1. For some assays here: The top dose, if marked as inferred, was derived from the fitted curves, not read from the paper. For some assays here: Where an entry number is given, a second screen of the drug exists; the two often differ.
# Columns and labels:
# Assay in all cases: Viability of human cancer cell lines after 72 h of drug (GDSC screen)
# OSI-930 = compound: O=C(Nc1ccc(OC(F)(F)F)cc1)c1sccc1NCc1ccnc2ccccc12 [OSI-930]; conditions: top dose 10.24 µM
# Protocol: (§1)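 Human cancer cell lines in 384-well plates, medium with 10% serum, drug for 72 h over a 256-fold dose range (nine 2-fold or five 4-fold steps up to the top dose). Adherent lines were fixed and stained with the nucleic acid dye Syto60, suspension lines read with resazurin; signal relative to control wells, capped at 0 and 100%. One two-parameter sigmoid per drug and line, fitted in a mixed model over all curves with the slope shared within a line.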
# LAQ824 = compound: O=C(/C=C/c1ccc(CN(CCO)CCc2c[nH]c3ccccc23)cc1)NO [LAQ824]; conditions: top dose 1.024 µM; top dose inferred
# Protocol: as §1
# Bleomycin = compound: Cc1c(N)nc([C@H](CC(N)=O)NC[C@H](N)C(N)=O)nc1C(=O)N[C@H](C(=O)N[C@H](C)[C@@H](O)[C@H](C)C(=O)N[C@H](C(=O)NCCc1nc(-c2nc(C(=O)NCCC[S+](C)C)cs2)cs1)[C@@H](C)O)[C@@H](OC1OC(CO)C(O)C(O)C1OC1OC(CO)C(O)C(OC(N)=O)C1O)c1cnc[nH]1 [Bleomycin]
# Protocol: as §1
# VNLG/124 = compound: CCCC(=O)OCc1ccc(OC(=O)/C=C(C)/C=C/C=C(C)/C=C/C2=C(C)CCCC2(C)C)cc1 [VNLG/124]; conditions: top dose 5.12 µM; top dose inferred
# Protocol: as §1
# BX-912 = compound: O=C(Nc1cccc(Nc2ncc(Br)c(NCCc3cnc[nH]3)n2)c1)N1CCCC1 [BX-912]; conditions: top dose 10.24 µM; top dose inferred
# Protocol: as §1
# Elesclomol = compound: CN(NC(=O)CC(=O)NN(C)C(=S)c1ccccc1)C(=S)c1ccccc1 [Elesclomol]; conditions: top dose 0.2 µM; top dose inferred
# Protocol: as §1
# NSC-87877 = compound: O=S(=O)(O)c1ccc2cc(N=Nc3cc(S(=O)(=O)O)c4cccnc4c3O)ccc2c1 [NSC-87877]; conditions: top dose 16 µM; top dose inferred
# Protocol: as §1
# Masitinib = compound: Cc1ccc(NC(=O)c2ccc(CN3CCN(C)CC3)cc2)cc1Nc1nc(-c2cccnc2)cs1 [Masitinib]; conditions: top dose 20 µM
# Protocol: as §1
# [1] = top dose 50 µM, screen: GDSC drug entry 1378, top dose inferred
# [2] = top dose 64 µM, screen: GDSC drug entry 190
Cell Line,AUC (OSI-930),IC50 (OSI-930),AUC (LAQ824),IC50 (LAQ824),AUC (Bleomycin; [1]),IC50 (Bleomycin; [1]),AUC (Bleomycin; [2]),IC50 (Bleomycin; [2]),AUC (VNLG/124),IC50 (VNLG/124),AUC (BX-912),IC50 (BX-912),AUC (Elesclomol),IC50 (Elesclomol),AUC (NSC-87877),IC50 (NSC-87877),AUC (Masitinib),IC50 (Masitinib)
"MDA-MB-453 (breast, adherent)",0.862,> 10.2 µM,0.458,0.0487 µM,0.926,> 50 µM,0.661,11.8 µM,0.986,> 5.12 µM,0.853,9.45 µM,0.624,0.0285 µM,0.984,> 16 µM,0.864,> 20 µM
"DJM-1 (skin, adherent)",0.963,> 10.2 µM,0.705,0.241 µM,0.442,2.18 µM,0.333,1.38 µM,0.988,> 5.12 µM,0.982,> 10.2 µM,0.665,0.0358 µM,0.989,> 16 µM,0.977,> 20 µM
"RCC10RGB (kidney, adherent)",0.965,> 10.2 µM,0.498,0.0628 µM,0.768,42.1 µM,0.767,53.1 µM,0.954,> 5.12 µM,0.972,> 10.2 µM,0.968,> 0.2 µM,0.96,> 16 µM,0.877,> 20 µM
"SF539 (glioma, adherent)",0.986,> 10.2 µM,0.505,0.0658 µM,0.309,0.968 µM,0.212,0.638 µM,0.899,> 5.12 µM,0.874,8.24 µM,0.61,0.0242 µM,0.988,> 16 µM,0.87,15.4 µM
"NCI-H3122 (lung adenocarcinoma, adherent)",0.944,> 10.2 µM,0.424,0.0394 µM,0.678,9.97 µM,0.36,1.63 µM,0.986,> 5.12 µM,0.97,> 10.2 µM,0.665,0.0366 µM,0.97,> 16 µM,0.926,> 20 µM
"CAL-51 (breast, adherent)",0.939,> 10.2 µM,0.497,0.0629 µM,0.103,0.206 µM,0.02,< 0.25 µM,0.99,> 5.12 µM,0.968,> 10.2 µM,0.201,0.00192 µM,0.786,5.92 µM,0.974,> 20 µM
"SW1990 (pancreas, adherent)",0.973,> 10.2 µM,0.586,0.115 µM,0.889,> 50 µM,0.49,3.74 µM,0.983,> 5.12 µM,0.979,> 10.2 µM,0.359,0.00475 µM,0.972,> 16 µM,0.977,> 20 µM
"U-87-MG (glioma, adherent)",0.983,> 10.2 µM,0.734,0.338 µM,0.773,23 µM,0.633,9.99 µM,0.973,> 5.12 µM,0.963,> 10.2 µM,0.868,> 0.2 µM,,,0.882,> 20 µM
"DOHH-2 (B-cell lymphoma, suspension)",,,0.365,0.0273 µM,,,0.568,6.12 µM,,,,,0.858,0.159 µM,0.984,> 16 µM,,
"BT-549 (breast, adherent)",,,,,0.644,9.16 µM,,,,,,,0.435,0.00776 µM,,,,
"NB17 (neuroblastoma, adherent)",0.886,> 10.2 µM,,,0.759,19.9 µM,,,0.97,> 5.12 µM,0.966,> 10.2 µM,0.489,0.0116 µM,0.612,2.13 µM,0.769,8.63 µM
"MDA-MB-231 (breast, adherent)",,,0.518,0.0721 µM,0.816,30 µM,0.195,0.461 µM,0.968,> 5.12 µM,,,0.575,0.0203 µM,0.985,> 16 µM,0.916,> 20 µM
"ME-180 (cervix, adherent)",0.966,> 10.2 µM,0.558,0.0931 µM,0.371,1.35 µM,0.85,51.7 µM,0.967,> 5.12 µM,0.777,4.3 µM,0.489,0.0116 µM,,,0.883,> 20 µM
"HeLa (cervix, adherent)",0.969,> 10.2 µM,,,0.641,7.53 µM,,,0.987,> 5.12 µM,0.947,> 10.2 µM,0.649,0.0316 µM,0.98,> 16 µM,0.968,> 20 µM
"JHOS-4 (ovary, adherent)",,,,,0.842,> 50 µM,,,,,,,0.212,0.00116 µM,,,,
"MM1S (myeloma, suspension)",,,,,,,,,,,,,0.562,0.0183 µM,,,,
"LN-229 (glioma, adherent)",0.981,> 10.2 µM,0.46,0.0498 µM,0.482,2.8 µM,0.773,24.9 µM,0.981,> 5.12 µM,0.984,> 10.2 µM,0.567,0.0191 µM,,,0.976,> 20 µM
"TALL-1 (T-cell lymphoblastic leukaemia, suspension)",0.94,> 10.2 µM,0.583,0.106 µM,,,0.96,> 64 µM,0.986,> 5.12 µM,0.866,8.47 µM,,,0.97,> 16 µM,0.912,> 20 µM
